Hit rate of the full screen: of about 16,000 compounds, about 120 (0.75%) were called active. Roughly 4% stayed inconclusive and do not appear here. The call rests on the fitted dose curve; in most records, active means well fitted inhibition curve with a large enough effect; inconclusive means small, poorly fitted or top-dose-only effect; inactive means no such curve, though single readings can be large or run the other way. This is one part of the list.
molecular target: Rap guanine nucleotide exchange factor 3 (Homo sapiens) (UniProt O95398); assay: Validation qHTS for antagonist of cAMP-regulated guanine nucleotide exchange factor 3 (EPAC1); conditions: EPAC1 Rap1B-BODIPY-GDP exchange, fluorescence; series mostly up to 150 µM; activity change, negative = inhibition: at the top concentration; further: nearly all actives have a fitted effect of over 75% in size
Outline: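 EPAC1 (100 nM) mixed with 250 nM RAP1B-BODIPY-GDP and 50 uM GDP; compounds in concentration series, 5 min at room temperature. Fluorescence (ex 480/em 540 nm) read every 5 min for 30 min; normalized to ATA control and DMSO.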

Sequence of UniProt O95398 (O95398 whole entry, looked up): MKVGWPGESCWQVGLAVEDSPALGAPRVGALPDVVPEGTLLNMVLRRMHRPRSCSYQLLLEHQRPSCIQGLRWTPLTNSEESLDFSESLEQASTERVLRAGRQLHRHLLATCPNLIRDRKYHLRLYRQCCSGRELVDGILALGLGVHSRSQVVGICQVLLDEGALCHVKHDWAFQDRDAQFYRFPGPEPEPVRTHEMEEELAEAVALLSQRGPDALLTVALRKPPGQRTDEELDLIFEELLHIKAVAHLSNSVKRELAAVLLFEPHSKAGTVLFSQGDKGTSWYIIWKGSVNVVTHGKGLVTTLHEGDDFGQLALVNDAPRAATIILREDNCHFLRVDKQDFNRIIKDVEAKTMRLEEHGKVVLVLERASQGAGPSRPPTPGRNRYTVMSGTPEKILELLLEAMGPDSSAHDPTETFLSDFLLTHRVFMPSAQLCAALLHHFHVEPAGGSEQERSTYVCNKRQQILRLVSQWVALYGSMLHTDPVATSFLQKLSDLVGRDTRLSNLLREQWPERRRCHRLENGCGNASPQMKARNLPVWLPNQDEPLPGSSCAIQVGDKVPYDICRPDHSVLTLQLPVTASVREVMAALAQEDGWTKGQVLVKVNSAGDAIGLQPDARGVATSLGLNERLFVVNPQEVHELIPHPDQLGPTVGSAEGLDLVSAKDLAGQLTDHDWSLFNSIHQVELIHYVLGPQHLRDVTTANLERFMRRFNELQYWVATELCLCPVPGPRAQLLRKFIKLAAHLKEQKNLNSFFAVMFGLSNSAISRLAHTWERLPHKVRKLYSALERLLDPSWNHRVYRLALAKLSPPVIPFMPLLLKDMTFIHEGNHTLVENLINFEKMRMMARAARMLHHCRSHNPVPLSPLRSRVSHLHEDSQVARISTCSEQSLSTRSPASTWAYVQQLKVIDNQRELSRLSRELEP

Activity change, negative = inhibition, inactive:
O=C(Oc1ccccc1)N1CCC2(CC1)CCN(c1cccc(-c3ccccc3)c1)CC2 12.4%
O=C(O)Cc1c[nH]c2ccc(O)cc12 -2.11% [at 75.8 µM]
COC(=O)c1ccccc1C(=O)c1ccc(OCCN2CCCCC2)cc1 16.5%
O=C(Nc1cccc(F)c1)N1CCCC2(CCN(C(=O)c3csnn3)CC2)C1 16.3%
N[C@H](C(=O)O)c1nn[nH]n1 12.1%
CN1CC(=O)N/C1=N/C(=O)Nc1cccc(Cl)c1
CC(C)=CCC/C(C)=C/CC/C(C)=C/CC/C=C(\C)CC/C=C(\C)CCC=C(C)C
CC(=O)N[C@H](Cc1c[nH]c2ccccc12)C(N)=O 9.7%
CC(C)OC(=O)c1cc2c(OCC(O)CNC(C)(C)C)cccc2[nH]1 (stereo not drawn) 7.14%
CN1CCC(=O)N([C@H](CO)Cc2ccccc2)CC1 4.51%
Cn1nnnc1SCC1=C(C(=O)O)N2C(=O)C(NC(=O)C(O)c3ccccc3)C2SC1 (stereo not drawn) 6.01%
CCN(CC)CCOC(=O)c1cc(Cl)c(N)cc1OC
NC/C=C/C(=O)O
CN(Cc1ccco1)c1cc(-c2cccc(NS(C)(=O)=O)c2)ncn1 -17.3%
CC12CCC3c4ccc(O)cc4CCC3C1CCC2=O (stereo not drawn) 13.2%
O=c1[nH]c(-c2ccccc2O)nc2ccccc12 -8.15%
CC(=O)N[C@@H](Cc1c[nH]c2ccccc12)C(=O)OCc1cc(C(F)(F)F)cc(C(F)(F)F)c1 9.21% [at 75.8 µM]
Cc1ccc2c(c1)c1c3n2CCNC3CCC1 (stereo not drawn) 8.5%
CCC(=O)OCC(=O)C1(OC(=O)CC)C(C)CC2C3CCC4=CC(=O)C=CC4(C)C3(Cl)C(O)CC21C (stereo not drawn) -12.9%
c1ccc2sc(-c3cc4c(c(OC5CCOC5)c3)OCCN(Cc3cccn3-c3nccs3)C4)nc2c1 (stereo not drawn) -3.98%
COC(=O)C1=C(C)NC(C)=C(C(=O)O[C@@H]2CCCN(Cc3ccccc3)C2)[C@@H]1c1cccc([N+](=O)[O-])c1 -6.84%
COc1cccc(CNc2ncnc3sc(C(=O)N4CCOCC4)c(C)c23)c1OC 23.3%
C=C(C)C1(O)OC(=O)C=C1OC (stereo not drawn) 16.4%
COCc1ccc(C(=O)N2CCOc3ccc(CN4CCN(c5ccc(F)cc5)CC4)cc3C2)o1 17.9%
Cn1cccc1C(=O)N1CCC2(CCN(C(=O)Nc3cccc(F)c3)CC2)CC1 11.2%
O=C(N[C@H](CO)[C@H](O)c1ccc([N+](=O)[O-])cc1)C(Cl)Cl
COc1cccc(Cc2nc3cccnc3n2C2CCN(C(=O)c3n[nH]c4c3CCCC4)CC2)c1 26.7%
O=C(O)CCNC(=O)c1ccccc1 -10.9%
COCc1ccc(CN2Cc3cc(Cl)ccc3OC(C)C2)o1 (stereo not drawn) 8.83%
C/C(=C\c1ccco1)CN1CCOc2ccc(C(C)(O)COc3ccccc3)cc2C1 (stereo not drawn) -2.04%
CCC[C@@H]1C[C@@H](C(=O)N[C@@H]([C@H]2O[C@H](SC)[C@H](O)[C@@H](O)[C@H]2O)[C@H](C)Cl)N(C)C1 19.1%
NC(C(=O)O)[C@H](O)C(=O)O (stereo partly drawn) 20.6%
O=C(O)C1OC(O)C(O)C(O)C1O (stereo not drawn) -18.6%
O=C(c1ccncc1)N1CCC2(CC1)CN(c1ncccn1)C2 15.2%
NCCCNCCCCN(CCCN)/[N+]([O-])=N/O 4.33%
CCC1CN(CCNC(=O)c2cccc(N3CCCC3=O)c2)Cc2cc(OC)ccc2O1 (stereo not drawn) 4.01%
Cn1cnc2c1c(=O)[nH]c(=O)n2C
CC(C)NC(=O)N1CCCC2(CCN(S(=O)(=O)c3ccccc3)CC2)C1 17.9%
CCCN(CCC)c1ccc(/C=C/c2ccnc3ccccc23)cc1 417%
COc1ccc(C(=O)N2CCC[C@@]3(CCN(C(=O)Nc4cccc(F)c4)C3)C2)cc1 18.1%
CC1=NN(c2ccccc2)C(=O)C1
Cc1c(C(=O)NCc2ccco2)cnn1-c1ncc2c(n1)-c1ccccc1CC2 7.46%
COCC(=O)N1CCC2(CC1)CN(C(=O)Nc1cccc(C#N)c1)C2 1.9%
CCN(CC)CCNC(=O)c1cc(Cl)c(N)cc1OC
NCCCNCCCCNCCCN
CN(C)C/C=C(/c1ccc(Br)cc1)c1cccnc1
CCOc1ccc2ccccc2c1C(=O)N[C@@H]1C(=O)N2[C@@H]1SC(C)(C)[C@@H]2C(=O)O 5.46% [at 75.8 µM]
C/C=C/C=C/C(=O)O -1.84%
O=C(c1cccc(F)c1)N1CCC2(CC1)CN(c1ccncc1)C2 7.63%
COc1cccc(Cn2c(=O)c(C)nc3cnc(N(C)C)nc32)c1 2.21%
CN(C)c1ncc2nc(-c3ccc(F)cc3)c(=O)n(Cc3ccc(F)cc3)c2n1 6.18%
O=C(OC1C[C@@H]2CC3C[C@H](C1)N2CC3=O)c1c[nH]c2ccccc12 (stereo partly drawn) 19.8%
COc1ccccc1-n1cc(CN2CCC3(CCC(CNC(=O)c4ccccc4)O3)CC2)cn1 (stereo not drawn) 11.4%
CN(N=O)C(=O)N[C@@H]1[C@@H](O)[C@H](O)[C@@H](CO)O[C@@H]1O 12.8% [at 75.8 µM]
NCCCC(=O)O
COC(=O)c1cccc(C(=O)NCc2nc(-c3cccc(NC(=O)c4ccoc4C)c3)oc2C)c1 0.0592%
Cc1ccc(-c2nn(C(C)(C)C)c3ncnc(N)c23)cc1
NC(=O)NCC(N)C(=O)O (stereo not drawn) -10.1%
NCCc1cnc[nH]1
CCCCCCCCCCCCCCCCCCCCCCO 9.98%
Cc1ccc(C(C)CCN2CCOc3ccc(CN4CCOCC4)cc3C2)o1 (stereo not drawn) 2.35%
COc1c2c(c(C(=O)/C=C/C(C)=C/c3ccccc3)c3c1OCO3)CCN(C)C2 10%
COc1ccc(O)cc1 12.2%
CC(=O)NC(Cc1ccccc1)C(=O)O (stereo not drawn) 8.72%
CN(C)c1ncc2ncc(=O)n(CCC#N)c2n1 7.43%
Cc1c(C(=O)N2CC3CCC2C3)sc2ncnc(NCc3ccco3)c12 (stereo not drawn) 5.49%
Cc1c(-c2ccccc2)oc2c(C(=O)OCCN3CCCCC3)cccc2c1=O -10.5% [at 75.8 µM]
Cn1cccc1C(=O)N1CCC2(CCN(Cc3ccncc3)CC2)CC1 15.3%
C#Cc1cccc(C(=O)NCc2nc(-c3cccc(NC(=O)c4ccccn4)c3)oc2C)c1 -5.39%
COc1ccccc1CN1CCCC2(CCN(S(C)(=O)=O)CC2)C1 20%
COC(=O)c1cccc(C(=O)N2CCc3c(C(=O)OC)c(OCc4ccccn4)cc(=O)n3CC2)c1 3.21%
CCCCCC(O)/C=C/C=O (stereo not drawn) 26.4%
Cc1noc(C)c1-c1nc(Nc2ccncc2)c2ccccc2n1 20.5%
Cn1cc(-c2nc3cnc(N4CCNCC4)nc3n(CCc3ccccc3)c2=O)c2ccccc21 35.7%
COc1ccccc1CNc1ncnc2ccc(-c3ccoc3)cc12 -0.75%
COC(=O)N1CCC2(CCN(C(=O)Nc3ccccc3)CC2)CC1 13.7%
O=C1CCN(Cc2ccc([N+](=O)[O-])cc2)CCN1[C@H](CO)Cc1ccccc1 11.4%
COc1cccc(C(=O)NCC2Cc3cccc(-c4cccnc4)c3O2)c1 (stereo not drawn) -20.9%
NC(N)=NC(=O)Cc1c(Cl)cccc1Cl
CC1(C)O[C@H]2CC(=O)OC[C@]23[C@H]2CC[C@@]4(C)[C@H](c5ccoc5)OC(=O)[C@H]5O[C@]54[C@]2(C)C(=O)C[C@@H]13 -17.3%
COc1cccc(-c2cncnc2N(C)Cc2ccco2)c1 7.03%
COc1ccc(CN2CCC(=O)N([C@H](CO)CC(C)C)CC2)cc1 0.258%
CCN(CC)CCOC(=O)c1ccc(N)cc1Cl 27.7%
COCCn1c(=O)c(C)nc2cnc(Nc3ccccc3)nc21 15.9%
C=C(C(=O)O)[C@@H]1CC[C@@]2(C)CCC[C@](C)(O)[C@@H]2C1 20%
COc1ccc(CN2CCCC(c3nc(-c4ccncc4)ncc3-c3ccccc3)C2)c(OC)c1OC (stereo not drawn) 3.05%
NC/C=C\C(=O)O
COc1cc(OC)c(OC)cc1CN1CCCC(n2cc(C(=O)N3CCCCC3)nn2)C1 (stereo not drawn) 10.7%
C=C[C@]1(C)Cc2occ(C)c2C[C@H]1C(=C)C(=O)O -2.87%
COc1ccc(C(=O)C[N+]2(C)CCOCC2)cc1 20.6%
NS(=O)(=O)c1cc2c(cc1Cl)NC=NS2(=O)=O
Cn1c(=O)c2[nH]c(-c3ccccc3)nc2n(C)c1=O -2.72% [at 75.8 µM]
COc1ccc(C(=O)N2CCC3(CCCN(c4ccncc4)C3)CC2)cc1 -0.242%
Nc1ccc(S(=O)(=O)Nc2ccccc2)cc1 1.59%
CC(C)Nc1cccnc1N1CCN(C(=O)c2cc3cc(NS(C)(=O)=O)ccc3[nH]2)CC1 16.3%
CN(CC[C@@H](Oc1ccc(C(F)(F)F)cc1)c1ccccc1)CC(=O)O 2.67% [at 75.8 µM]
COc1ncc2nc(-c3cccs3)c(=O)n(CCc3ccccc3)c2n1 5.25%
O=C(/C=C/c1ccc(O)cc1)c1ccccc1O -7.71%
COc1ccc2c(c1)-c1nc(-n3ncc(C(=O)NC[C@@H]4CCCN5CCCC[C@H]45)c3C)ncc1CC2 8.08%
CN[C@@H]1[C@H](O[C@H]2[C@H](O[C@H]3[C@H](O)[C@@H](O)[C@H](N=C(N)N)[C@@H](O)[C@@H]3N=C(N)N)O[C@@H](C)[C@]2(O)CO)O[C@@H](CO)[C@H](O)[C@H]1O 10.2%
Cc1onc(-c2ccccc2Cl)c1C(=O)N[C@@H]1C(=O)N2[C@@H]1SC(C)(C)[C@@H]2C(=O)O 22.4% [at 75.8 µM]
C#Cc1cccc(Nc2ncnc3cc(OCCOC)c(OCCOC)cc23)c1 10.8%
COc1ccccc1CNc1nc(-c2ccoc2)nc2ccccc12 0.0463%
C[C@H](CCCC(C)(C)O)[C@H]1CC[C@H]2[C@@H]3CC=C4C[C@@H](O)CC[C@]4(C)[C@H]3CC[C@]12C 1.84%
CC(=O)N1CCC2(CCCN(Cc3ccc(C#N)cc3)C2)CC1 8.08%
O=C1[C@H]2[C@H](C=CC[C@H]2C(=O)N2CCN(c3ccccc3)CC2)CCN1Cc1ccccc1 2.85%
COc1ccc(-c2cn(Cc3ccc([N+](=O)[O-])cc3)nn2)cc1 -11.5%
COc1ccc(CNc2ncnc3ccc(-c4ccccc4OC)cc23)c(OC)c1 -13.9%

— PubChem BioAssay AID1645882 (National Center for Advancing Translational Sciences (NCATS), 2021)
